Measured values from PubChem BioAssay (NCATS).
The shares of active, inactive and inconclusive entries below differ from those in the screen. A potency beside an inconclusive call is a rough fit, not a confirmed value. The source made the active and inactive calls. Calls come from the whole dose curve; as a rule, active = well fitted curve in the direction sought with a large enough effect; inconclusive = small, poorly fitted or top-dose-only effect, or another doubt; inactive = no such curve, though single readings can be large; an effect the other way counts as inactive or inconclusive.

What was measured:
[1] = qHTS of pediatric cancer cell lines to identify multiple opportunities for drug repurposing: Primary screen for NB-EBc1 cells (AID 1347095)
Summary of the method: (§1)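 Readout: CellTiter-Glo luminescence, 48 h treatment. Controls DMSO (neutral) and bortezomib 2.3 µM final (positive). Potency and efficacy taken from primary-screen concentration-response curves.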

[2] = qHTS of pediatric cancer cell lines to identify multiple opportunities for drug repurposing: Primary screen for Saos-2 cells (AID 1347097); conditions: Saos-2 viability, CellTiter-Glo ATP luminescence, 48 h; activity change, negative = cytotoxic: at 46 µM (top of the series); note: nearly all actives have a fitted effect of over 40% in size
Summary of the method: as §1

[3] = qHTS of pediatric cancer cell lines to identify multiple opportunities for drug repurposing: Primary screen for SK-N-SH cells (AID 1347098); conditions: SK-N-SH viability, CellTiter-Glo luminescence, 48 h; activity change, negative = cytotoxic: at 57 µM (top of the series); note: nearly all actives have a fitted effect of over 65% in size
Summary of the method: (§2)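 Cells (500-1,000/well) rested 5 h, then received compounds for 48 h; metabolically active cells were measured by CellTiter-Glo luminescence. Final concentrations spanned up to 46 µM (MIPE, 11-point) or 0.59 nM-46 µM (NPC, 8-point) in primary screens, 11-point in follow-ups.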

[4] = qHTS of pediatric cancer cell lines to identify multiple opportunities for drug repurposing: Primary screen for LAN-5 cells (AID 1347100); conditions: LAN-5 neuroblastoma viability, CellTiter-Glo luminescence, 48 h; activity change, negative = cytotoxic: at 46 µM (top of the series)
Summary of the method: (§3)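 Viability after 48 h compound treatment at 37C, 500-1,000 cells/well, read as ATP luminescence with CellTiter-Glo. Primary screens used 11-point (MIPE, 0.78 nM-46 µM) or 8-point (NPC, 0.59 nM-46 µM) final concentrations; follow-up screens used 11-point dilutions.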

[5] = qHTS of pediatric cancer cell lines to identify multiple opportunities for drug repurposing: Primary screen for OHS-50 cells (AID 1347103); note: nearly all actives have a fitted effect of over 40% in size
Summary of the method: as §2

[6] = qHTS of pediatric cancer cell lines to identify multiple opportunities for drug repurposing: Primary screen for RD cells (AID 1347104); note: nearly all actives have a fitted effect of over 55% in size
Summary of the method: as §1

[7] = qHTS of pediatric cancer cell lines to identify multiple opportunities for drug repurposing: Primary screen for BT-12 cells (AID 1347101); note: nearly all actives have a fitted effect of over 25% in size
Summary of the method: as §2

[8] = qHTS of pediatric cancer cell lines to identify multiple opportunities for drug repurposing: Primary screen for Rh18 cells (AID 1347102); note: nearly all actives have a fitted effect of over 65% in size
Summary of the method: as §3

[9] = qHTS of pediatric cancer cell lines to identify multiple opportunities for drug repurposing: Primary screen for U-2 OS cells (AID 1347096); note: nearly all actives have a fitted effect of over 50% in size
Summary of the method: as §3

Measured: Potency
Potency is the fitted concentration of half-maximal effect; tags give direction and shape of the fitted curve.

CN[C@@H](C)C(=O)N[C@H]1CCCC[C@H]2CC[C@@H](C(=O)N[C@@H](c3ccccc3)c3cn(CCCCc4ccc(CCCCn5cc([C@@H](NC(=O)[C@@H]6CC[C@@H]7CCCC[C@H](NC(=O)[C@H](C)NC)C(=O)N76)c6ccccc6)nn5)cc4)nn3)N2C1=O
inconclusive: [1] 11.8 µM [cytotoxic, partial curve] | [2] 13.2 µM [cytotoxic, partial curve, poor fit] | [3] 42.9 µM [cytotoxic, single point] | [4] 37.2 µM [cytotoxic, partial curve, poor fit] | [5] 30.6 µM [cytotoxic, single point] | [6] 29.6 µM [cytotoxic, single point]

CCCCc1ccc(NS(=O)(=O)c2ccc(C)c(C(=O)N3CCN(c4cccc(C)c4C)CC3)c2)cc1
inconclusive: [1] 37.2 µM [cytotoxic, single point] | [2] 20.9 µM [cytotoxic, single point] | [3] 27.1 µM [cytotoxic, partial curve] | [4] 26.4 µM [cytotoxic, single point] | [7] 17.2 µM [cytotoxic, partial curve] | [8] 18.7 µM [cytotoxic, partial curve] | [5] 43.2 µM [cytotoxic, single point]

O=C(NC1CC1)c1cccc(-c2ccc3c(NC(=O)C4CC4)n[nH]c3c2)c1
active: [8] 2.96 µM
inconclusive: [1] 6.62 µM [cytotoxic, full curve] | [9] 2.35 µM [cytotoxic, full curve]
